From PubChem BioAssay AID463173 (ICCB-Longwood Screening Facility, Harvard Medical School, 2010)
In all, about 52,000 compounds went through this assay and about 1,700 (3.3%) were called active. No stated cut-off is given here; in the data, active means survival mostly below about 52% (no sharp cut-off); inactive means mostly above about 56%. Some of the results follow.

system: Wild type; assay: S. aureus survival, RN4220 and DeltatarO strains – OD600, teichoic acid synthesis inhibitors, primary screen (AID 463173); conditions: S. aureus RN4220 wild type/DeltatarO growth, OD600, 18 h, hits give low values, screened at 18.75 µg/mL (by protocol)

Structure (SMILES) | survival
CCCCCCOc1ccc(/C=C/C(=O)Nc2sc3c(c2C(=O)OC)CCC3)cc1OC | inactive: 70%
CCc1ccccc1NC(=O)CCNS(=O)(=O)c1ccc2c(c1)CCCC(=O)N2 | inactive: 73%
COc1ccc(NC(=O)Cn2c(=O)oc3ccccc32)cc1 | inactive: 73%
Cc1nccn1C(=O)c1ccccc1C(=O)O | inactive: 112%
Cc1nn(C)c2c1c(C(F)(F)F)cc(=O)n2CC(=O)NCc1ccc(OC(C)C)cc1 | inactive: 138%
Cn1c(CNc2ccc(Cl)cc2)nnc1SCc1ccc(Cl)cc1 | inactive: 99%
CCC(C)c1ccc(OCC(=O)Nc2cccc3ccc(C)nc23)cc1 (stereo unspecified) | active: -12%
CCC(C)NC(=O)c1cc2cc(S(=O)(=O)N3CCCCC3)ccc2n1C (stereo unspecified) | active: 14%
CCN1CCN(c2ncc3c(n2)CCN(Cc2cc(Br)cs2)C3)CC1 | active: 1%
O=C(NCC(c1ccc2c(c1)OCO2)N1CCOCC1)c1ccccc1 (stereo unspecified) | inactive: 131%
Cc1c(O)nc(SCC(=O)Nc2ccc(Cl)cc2Cl)n(-c2ccc(F)cc2)c1=O | inactive: 62%
CC(C)(C)c1ccc(CSC2=Nc3ccccc3C3=NC(CC(=O)NCc4cccs4)C(=O)N23)cc1 (stereo unspecified) | inactive: 54%
Cc1cn(C)c(CC(=O)NCc2cccc(Cl)c2)c1C(=O)O | active: -3%
O=C(OC(C(=O)NCC1CCCO1)c1ccc(F)cc1)c1ccco1 (stereo unspecified) | inactive: 100%
COc1cc(Cn2c(=O)oc3ccc(C)cc32)ccc1OCCC(C)C | active: -7%
CC(C)(C)c1ccc(S(=O)(=O)N2CCC(Oc3ccc(-n4cnnn4)cc3)CC2)cc1 | inactive: 81%
O=C(CNC(=O)c1ccc(Cl)cc1)OCc1cc(=O)n2nc(C3CC3)sc2n1 | inactive: 80%
Cc1ccc(CNS(=O)(=O)c2ccc(N3CCCCS3(=O)=O)cc2)cc1 | inactive: 92%
COc1ccc(Nc2oc(-c3ccc(COc4cccc(C)c4)o3)nc2C#N)cc1 | inactive: 116%
COC(=O)c1cc(NC(=O)CCc2c(C)nc3c(c(C)nn3C(C)(C)C)c2C)cc(C(=O)OC)c1 | inactive: 74%
COC(=O)COc1ccc(C2C(C(=O)OC)=C(C)NC3=C2C(=O)c2ccccc23)cc1OC (stereo unspecified) | inactive: 57%
Cn1nnnc1SCCCNCc1ccc(Cl)cc1 | inactive: 85%
CC(C)c1ccc(C2Sc3ccccc3NC3=C2C(=O)c2ccccc23)cc1 (stereo unspecified) | inactive: 90%

Structure (SMILES) | survival
CCN(CC)CC#CC1(O)CCCCC1 | inactive: 107%
Cc1cc(C)c2c(c1)NC(=O)C2(O)c1c[nH]c2ccccc12 (stereo unspecified) | inactive: 97%
Cc1ccc2c(c1)cc1c(=O)n(Cc3cccc(Cl)c3)nc(C)n12 | inactive: 91%
COc1ccc(CCNC(=O)Cc2c(C)c3cc4c(C(C)(C)C)coc4c(C)c3oc2=O)cc1OC | inactive: 84%
Cc1nc(N2CCOCC2)c2c(C(=O)N3CCN(c4ccccc4F)CC3)c(C)oc2n1 | inactive: 95%
Cc1ccc(CN2COc3ccc4c(C)cc(=O)oc4c3C2)cc1 | inactive: 66%
Cc1ccc2nc(NN)nc(-c3ccccc3)c2c1 | inactive: 100%
O=C(Nc1cc(Cl)ccc1Cl)c1cc(S(=O)(=O)NCCc2ccccc2)ccc1F | inactive: 133%
CC1CCc2onc(C(=O)N3CCN(c4ccccc4)CC3)c2C1 (stereo unspecified) | inactive: 121%
O=C(COc1ccccc1F)Nc1ccccc1C(=O)OCc1cc(=O)n2nc(C3CC3)sc2n1 | inactive: 92%
O=C(NCc1ccc(Cl)cc1)c1cc2c(s1)-c1ccccc1SC2 | inactive: 62%
COc1ccc(-c2nc3c(c(SCC(=O)Nc4cccc(O)c4)n2)Cc2c(CO)cnc(C)c2O3)cc1 | inactive: 115%
Cc1ccc(C(=O)N(Cc2ccco2)Cc2sccc2C)cc1 | inactive: 80%
CCc1ccccc1NC(=O)Cn1c(=O)n(Cc2ccco2)c(=O)c2ccccc21 | inactive: 96%
COc1ccc(-c2c(C#N)c(SCC(=O)Nc3cccc(Cl)c3)nc(C)c2C(=O)Nc2ccccc2)cc1OC | inactive: 147%
COc1cc(OC)cc(C(=O)Nc2cc3c(cc2N2CCCCC2)n(C)c(=O)n3C)c1 | inactive: 83%
COc1ccc(CNC(=O)c2cnc3sc(N4CCC(C)CC4)nn3c2=O)c(OC)c1 | inactive: 83%
CCc1ccc(NC(=O)C2CCN(c3nn4cc(-c5ccc(OC)cc5)nc4s3)CC2)cc1 | inactive: 71%
Cc1ccc(N2C(=O)CC(c3ccccc3F)C3=C2COC3=O)cc1Cl (stereo unspecified) | inactive: 150%
CCN(CC)C(=O)Cn1c(=O)n(-c2ccc(Cl)c(Cl)c2)c(=O)c2c(C)c(C(=O)N(CC)CC)sc21 | inactive: 84%
Cc1cccc(S(=O)(=O)Nc2cccc(-c3ccc(N4CCCCC4)nn3)c2)c1 | inactive: 69%
CCc1nnc2c(N3CCN(c4cccc(C)c4)C(C)C3)nc3ccccc3n12 (stereo unspecified) | inactive: 80%
COc1cccc(OCc2nnc(SCC(=O)O)o2)c1 | inactive: 98%

Structure (SMILES) | survival
N#CC1=C(N)OC2=C(CCc3ccccc32)C1c1ccccc1 (stereo unspecified) | inactive: 29%
COc1ccc(C2C=C(c3ccc(F)cc3)Nc3nc(-c4ccc(Cl)cc4)nn32)cc1 (stereo unspecified) | inactive: 105%
COc1ccc(NC(=O)c2ccc3c(c2)N(Cc2cccc(Cl)c2)C(=O)c2ccccc2S3=O)cc1Cl (stereo unspecified) | inactive: 118%
CC1CCN(c2nc3c(S(=O)(=O)c4ccccc4)nnn3c3ccc(Cl)cc23)CC1 | inactive: 76%
COc1cccc(Cc2nc3ccccc3nc2SCC(=O)NCCc2ccccc2)c1 | inactive: 68%
COC(=O)C1=C(C)NC(C)=C(C(=O)OC)C1c1cn(-c2ccccc2)nc1-c1ccco1 | inactive: 111%
Cc1ccc(-c2nc3ccccc3[nH]2)cc1NC(=O)COc1ccccc1[N+](=O)[O-] | inactive: 92%
COc1ccccc1NC(=O)NCCCN1CCN(c2ccc(F)cc2)CC1 | inactive: 72%
O=C(c1cnn(-c2cccc(F)c2)c1-n1cccc1)N1CCN(c2ccccc2F)CC1 | inactive: 78%
CC1(C)CC2(CC(C)(C)NC(=O)N2)NC(=O)N1 | inactive: 101%
Cc1c(C)n(Cc2ccccc2)c2ccc(C(=O)NCc3ccccc3F)cc12 | inactive: 69%
COc1ccc(-n2nc3c(N4CCC(C(=O)NCc5cccc(F)c5)CC4)nnc(C)c3c2C)cc1 | inactive: 68%
CC(=O)c1cccc(NC(=O)CN2C(=O)c3ccccc3Sc3ncccc32)c1 | inactive: 89%
CCCN1CCN(CCCNC(=O)c2ccc3c(c2)sc2nc(-c4ccc(OC)cc4)cn23)CC1 | inactive: 81%
COc1ccc(C(=O)Nc2cccc(-c3cn4ccsc4n3)c2)cc1OC | inactive: 76%
Cc1ccccc1OCc1nnc(SCC(=O)Nc2sc(C)c(C)c2C#N)n1-c1ccccc1 | inactive: 112%
CC1=C(C(=O)NCc2ccccc2Cl)C2(CCCCCC2)OC1=O | inactive: 22%
Cc1ccc2c(CNCC(C)c3ccccc3)c(C(=O)O)n(Cc3ccccc3C)c2c1 (stereo unspecified) | inactive: 81%
Cn1c(SCC(=O)N2CCOCC2)ncc(C(=O)Nc2ccccc2)c1=O | inactive: 88%
Cc1ccccc1Cn1c(CN2CCC(C(=O)NCc3cccnc3)CC2)cc2ccccc21 | inactive: 77%
CCOC(=O)C1CCN(C(=O)Cn2nc(C)n3c(cc4sccc43)c2=O)CC1 | inactive: 85%
COc1ccc(NS(=O)(=O)c2ccc3c(c2)C(C(C)C)C(=O)N3)cc1 (stereo unspecified) | inactive: 70%
CCc1nn(CC(=O)NCCC(C)C)c(=O)c2cc3occc3n12 | inactive: 121%

Structure (SMILES) | survival
CCn1c(C)c(C2N3CC4(C)CN2CC(CC)(C3)C4=O)c2ccccc21 (stereo unspecified) | inactive: 117%
Nc1c(C(=O)Nc2ccccc2Cl)c2ccccn2c1C(=O)c1ccc(Cl)cc1 | inactive: 99%
COc1ccc(NC(=O)CSc2nc3c([nH]c4ccccc43)c(=O)n2C)cc1 | inactive: 76%
Cc1ccc(CNC(=O)CSc2ncc(S(=O)(=O)c3ccc(Br)cc3)c(=O)[nH]2)cc1 | inactive: 136%
COC(=O)c1sccc1S(=O)(=O)N(CC(=O)NCc1ccccc1)c1ccccc1 | inactive: 65%
Cc1ccc(CNC(=O)C(=O)NCC(c2cccs2)S(=O)(=O)c2ccc(C)cc2)cc1 (stereo unspecified) | inactive: 120%
Cc1c(C(=O)N2CCC(C)CC2)c(S(=O)(=O)NCc2ccccc2)c(C)n1C | inactive: 53%
COc1cccc(CC(=O)Nc2ccc3nc(N4CCC(C)CC4)cc(C)c3c2)c1 | inactive: 65%
c1ccc(NCc2ccncc2)cc1 | inactive: 105%
Cc1nn(C(=O)c2ccccc2F)c(C)c1S(=O)(=O)N1CCOCC1 | inactive: 66%
COc1ccc(Nc2ncnc3c2cnn3-c2ccc(C)cc2C)cc1 | inactive: 92%
Nc1cnn(C2CCCO2)c(=O)n1 (stereo unspecified) | inactive: 106%
O=C(CN1CCCC1)N/N=C/c1ccc(-c2cccc(Cl)c2Cl)o1 | inactive: 109%
COc1ccccc1C(=O)Nc1ccc2nc(N3CCC(C)CC3)cc(C)c2c1 | active: 0%
Cc1ccc(S(=O)(=O)Nc2cccc(C)c2)cc1 | inactive: 120%
CC(=O)c1cccc(NC(=O)Cn2c(=O)c(CNc3ccc(C)cc3)cc3cc4c(cc32)OCCO4)c1 | inactive: 77%
CCOc1ccccc1NS(=O)(=O)c1c(C)nc2sccn2c1=O | inactive: 79%
CCn1c(=O)c2cc(C(=O)N(CCCOC(C)C)Cc3ccco3)sc2c2ccccc21 | active: 1%
Cc1cc(C)c(NC(=O)Cn2c(SCC(=O)NCc3ccccc3)nc3ccccc32)c(C)c1 | inactive: 75%
Cc1ccc(-c2sc(C(=O)Nc3ccc(Br)cc3)cc2CC(=O)O)cc1 | inactive: 67%
O=C(Cn1nnc(-c2cccs2)n1)NC1CC1 | inactive: 100%
CCC(=O)NC1CCC(c2ccccc2)CC1 (stereo unspecified) | inactive: 109%
